PubChem BioAssay AID1963837 (Molecular Pharmacology Branch, DTP, NCI, 2024)
Not every entry of the source has a single result; some have several. This list holds those alone. There may be further records. Results that share an entry repeat one measurement in other runs, samples, wells, individuals or studies. Signs of the kind (2×) stand for listed records that agree.

Tested on: 843126-344-R-J1-PDC complex spheroid viability
Experiment: Anticancer human tumor 843126-344-R-J1-PDC patient-derived melanoma cell line growth inhibition [POLQ]
Conditions: stronger effect = lower value
Experimental: Multicellular complex tumor spheroid response to Polymerase (POL) inhibitors (novobiocin, ART-558, RP6685) in combination with a variety of drugs and investigational agents in selected tumor cell lines
The POL inhibitors (novobiocin, ART-558, and RP6685) were evaluated both individually and in combination with standard of care and investigational anticancer small molecules within a complex spheroid model of solid tumors. . Complex spheroids include a stromal component modeled by human endothelial cells (HUVEC) and fibroblasts modeled by human mesenchymal stem cells (MSCs). The concentration ranges selected for each drug and investigational agent were based upon clinically achievable concentrations if the clinical Cmax of the agent was known.
Compounds. The drugs and investigational agents: novobiocin (NSC847541), ART-558 (NSC835418), RP-6685 (NSC848927), peposertib (NSC802822), ceralasertib (NSC780249), elimusertib (NSC800525), camonsertib (NSC841442), AZD-1390 (NSC803789), olaparib (NSC753686), talazoparib (NSC767125), rucaparib (NSC756644), sotorasib (NSC818433), MRTX-1133 (NSC836407), SN-38 (NSC673596), topotecan (NSC609699), epotoside (NSC141540), doxorubicin (NSC123127), gemcitabine (NSC613327), 5-fluorouracil (NSC19893), paclitaxel (NSC125973), vemurafenib (NSC761431), MSA-2 (NSC828583), SN-011 (NSC837082), adavosertib (NSC754352), prexasertib (NSC758257), carboplatin (NSC241240) and oxaliplatin (NSC266046), were obtained from the National Cancer Institute (NCI) Developmental Therapeutics Program Chemical Repository (21). The FDA-approved anticancer drug set is available from the Developmental Therapeutics Program at https://dtp.cancer.gov/organization/dscb/obtaining/. […] The stock solutions were prepared in dimethyl sulfoxide (DMSO, Sigma-Aldrich, St. Louis, MO, cat. D2650), except for the platinum compounds which were prepared in saline (Quality Biological, Gaithersburg, MD, cat. 114-055-101), at 800-fold the tested concentration and stored at -70 degrees C prior to their use. All drugs and investigational agents were tested over a range starting from a high concentration at or near the clinical Cmax and decreasing in half-log increments. If the clinical Cmax for an agent had not been determined, the highest concentration tested was 10 microM, except for SN-38, which was tested at a high concentration of 1 microM.
Cell Culture. All cells were maintained in an incubator at 37 degrees C and 5% CO2 with 95% humidity. The PDC lines were cultured according to standard operating procedures established by the NCI PDMR (https://pdmr.cancer.gov). Table 3 of the manuscript, lists the cell lines along with the number of the three cell types plated to form the mct-spheroids and media for tumor cell growth. After thawing, all PDC lines, except 997537-175-T-J1-PDC and 415267-285-R-J2-PDC, were cultured in Matrigel-coated flasks prepared with a working solution of 1X Ham's F-12 nutrient mix, without supplementation (Thermo Fisher Scientific, cat. 11765054), 100 U/mL penicillin-streptomycin (Thermo Fisher Scientific, cat. 15140122), and 2.5% Matrigel (Corning Inc., Corning, NY, cat. 354248) for the first three passages. The two PDC lines 997537-175-T-J1-PDC and 415267-285-R-J2-PDC were cultured on uncoated flasks. The 857933-349-R-J2-PDC line was cultured in 6C/Colon 1B media containing advanced DMEM/F-12 (Thermo Fisher Scientific, cat. 12634028), 10 mM HEPES (Thermo Fisher Scientific, cat. 15630080), 1X GlutaMAX supplement (Thermo Fisher Scientific, cat. 35050061), 0.1 mg/mL primocin (InvivoGen, San Diego, CA, cat. ant-pm-2), 10% defined fetal bovine serum, heat inactivated (HyClone Laboratories Inc., Logan, UT, cat. SH30070.03HI), 50% L-WRN conditioned media (ATCC, cat. CRL-3276), 1.25 mM N-Acetyl-L-cysteine (Sigma-Aldrich, cat. A9165), 10 mM nicotinamide (Sigma-Aldrich, cat. N0636), 1X B-27 supplement (Thermo Fisher Scientific, cat. 17504044), 1X N-2 supplement (Thermo Fisher Scientific, cat. […]
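Further: spheroids exposed to drugs for seven days before readout.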

Compound	viability, T/C (compound alone 0.0316 µM)	viability, T/C (compound alone 0.1 µM)	viability, T/C (compound alone 0.316 µM)	viability, T/C (compound alone 3.16 µM)	viability, T/C (compound alone 10 µM)
COC1C(OC(N)=O)C(O)C(Oc2ccc3c(O)c(NC(=O)c4ccc(O)c(CC=C(C)C)c4)c(=O)oc3c2C)OC1(C)C (stereo not drawn)	95.2 (2×), 81.1, 105, 83.2, 98.8, 110, 77.5, 103, 96.1, 95.9, 94.6, 100%	107, 81.1, 96.3, 95.8, 105, 98.2 (2×), 88.9, 99.2, 80.9, 92.9, 111, 99.5%	97, 94.2, 87.5 (2×), 92.1, 89.5, 101 (2×), 90.1, 80.8, 107, 114, 86.1%	96.7, 107, 89.2, 97.6, 84.9, 100, 105, 85, 75, 88.8, 101, 81.7, 86.2%	94, 73.4, 90.6, 92.4, 89.8, 89.2, 91.5, 82.3 (2×), 107, 94.3, 91.6, 83.4%
Cc1cccc(N(C)C(=O)C2C(O)CCN2c2nc(C)cc(C(F)(F)F)c2C#N)c1 (stereo not drawn)	98.2, 92 (2×), 89.4, 91.3, 91.9, 85.2, 100, 99, 118, 96.9, 96.6%	82.6, 94.6, 102 (2×), 91.7, 87.8, 109, 92.3, 104, 90.3, 105, 101%		86.7, 80.6, 97.4, 72, 80.4, 76.3, 87.6, 100, 95.2, 82.8, 102, 91.5%	
